The text below walks through data of the RNAGym collection of RNA variant scans (doi:10.1101/gad.245936.114).

Variants at the background level are over-represented here. Bounds are passed on as bounds.

Sequences and labels used below:
B1: tRNA (parent)
chain: CUCUCGGUAGCCAAGUUGGUUUAAGGCGCAAGACUUUAAUUUAUCACUACGAAAUCUUGAGAUCGGGCGUUCGACUCGCCCCCGGGAGAUUUUUUCCUCGAGCAA

The variants in this series derive from B1. Kind of series: nonsense suppression (GFP-seq) (ratio to wild type); higher = more function; SUP4oc tRNA, yeast GFP reporter sort-seq. The method in brief:
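Raffinose/galactose medium with 80 mg/L adenine was used to grow yeast carrying genome-integrated tRNA variants (~3% random-mutation library), RFP, and a galactose-driven GFP ochre reporter. Cells went into GFP/RFP bins, which were Illumina-sequenced, and variants with ≥100 reads and ≥30 cells were scored. Nonsense suppression (GFPSEQ) is the per-bin median GFP/RFP weighted by estimated cell share and expressed relative to the unmutated parent tRNA.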
For CUCUCGGUAGCCAAGUUGGUUUAAGGCGCAAGACUUUAAUUUAUCACUACGAAAUCUUGAGAUCGGGCGUUCGACUCGGCCCCGGCAGAUUUUUUCCUCGAGCAA [C79G G86C], the nonsense suppression was not above 0.026. In the case of CUCUCGGUAGCCAAGUUGGUUUAAGGGGCAAGACUUUAAUUUAUCACUACGAAACCUUGUGAUCGGGCGUUCGAGUCGCCCCCGGUAGAUUUUUUCCUCGAGCAA [C27G U55C A60U C75G G86U], the nonsense suppression is not above 0.026. As to CUCACGGUAGCCAAGUUGGUUUAAGGCGCAAGACUUUAAUUUAUCACUACGAAAUCUUGAGAUCGGGCGUUCGCCUCGCCCCCGGGUGAUUUUUUCCUCGAGCAA [U4A A74C A87U], the nonsense suppression is not above 0.026.

As for CUCUUGGUAGCCAAGUUGCUUUAAGGCGCAAGACUUUAAUUUAUCACUACGAAAUCUUGAGAUCGGGCGUUCGACUCGCCCCCGGGAGAUUUUUUCCUCGAGCAA [C5U G19C], the nonsense suppression is not above 0.026.

Consider CUCUCGGUAGCCAAGUUGGUUUAAGGCGCAAGACUUUAAUUUAUCACUACGAAAUCUUGAGACCGGGAGUUCGACUCGCCCCCGGGAGGUUUUUUCCUCGAGCAA [U63C C68A A89G], for which the nonsense suppression is not above 0.026. Consider CUCUCGGUAGCCAAGUUGGUCAAAGGCGCAAGACUUUAAUUUAUCACUACGAAAUCGUGAGAUCGGGCGUUCGACUCGCCCCCGGGAGAUUUUUUCCUCGAGCAA [U21C U22A U57G], for which the nonsense suppression is not above 0.026. Turning to CCCUCGGUAGCCAAGUAGGUUUAAGGCGCAAGACUUUAAUUUAUCACUACGAAAUCAUGAGAUCGGGCGUUCGACUCGCCCCCGGGAGAUUUUUUCCUCGAGCAA [U2C U17A U57A], the nonsense suppression is not above 0.026. For the variant CGCUCGGUAGCCAAGUUGGUUUAAGGCGCAAGACUUUAAUUUAUCACUACGAAAUCUUGAGAUCGGGCGAUCGACUCGCCGCCGGGAGAUUUUUUCCUCGAGCAA [U2G U70A C81G], the nonsense suppression is not above 0.026. Regarding CUCUCGGUAGCCAUGUUGGUUUAAGGCGCAAGACUUUAAUUUAUCACUACGAAAUCUUGAGAUCGGGCGUUCGACUCGCCCCCGUGAUAUUUUUUCCUCGAGCAA [A14U G85U G88U], the nonsense suppression is not above 0.026. Under CUCUCAGUAGCCGAGUAGGUUUAAGGCGCAAGACUUUAAUUUAUCACUACGAAAUCUUGAGAUCGGGCGUUCGACUCGCCCCCGGGAGAUUUUUUCCUCGAGCAA [G6A A13G U17A] stands not above 0.026. On to AUAUCGGUAGCCAAGUUGGUUUAAGGCUCAAGACUUUAAUUUAUCACUACGAAAUCUUGAGAUCGGGCGUUCGACUCGCCCCCGGGAGAUUUUUUCCUCGAGCAA [C1A C3A G28U], for which the nonsense suppression was not above 0.026.

With CUCUCGGUAGCCAAGUUGGUUUAGGGCGCAAGAUUUUAAUUUAUCACUACGAAAUCUUGAGAUCGGGCGUUCGACUCGCCCCCGGGAGAUUUUUUCCUCGAGCAA [A24G C34U], the nonsense suppression was not above 0.026. Under CUCUCGGUAGUCAAGUUGAUUUAAAGCGUAAGACUUUAAUUUAUCACUACGAAAUCUUAAGAUCGGGCGUUCGACUCGCCCCCGGGAGAUUUUUUCCUCGAGCAA [C11U G19A G25A C29U G59A] stands not above 0.026; under CUCUCGGUAGCCGAGUCGGUUUAAGGCGCUAGACUUUAAUUUAUCACUACGAAAUCUUGAGAUCGGGCGUUCGACUCGCCCCCGGGAGAUUUUUUCCUCGAGCAA [A13G U17C A30U], not above 0.026. The value for CGCUCGGUAGCCAAGUUGGUUUGAGGAGCAAGACUUUAAUUUAUCACUACGAAAUCUUGAGAUCGGGCGUUCGACUAGCCCCCGGGAGAUUUUUUCCUCGAGCAA [U2G A23G C27A C77A] was not above 0.026; that for CUCUCAGUAGCCAAGUUGGUUUAAGGCGCAAGACUUUAAUUUAUCACUACGAAAUCUUGAGAUCGGGCGUUCGACUCGCCCCCGGGAGAUUUUUUCCUCGAGCAA [G6A] was not above 0.026; that for CUCUCGGUAGCCAAGUUGGUUGAAGGCGCAAGACUUUAAUUUAUCACUACGAAAUCUUGAGAUCGGGCUUUCGACUCGCCCCCGGGAGAUUUUUUCCUCGAGCAA [U22G G69U] was not above 0.026.

With GUCUCGGUAGCCAAGUUGGUUUAAGGCGCAAGACUUUAAUUUAUCACUACGAAAUAUUGAGAUCGGGCGUUGGACUCGCCCCCGGGAGAUUUUUUCCUCGAGCAA [C1G C56A C72G], the nonsense suppression was not above 0.026. Turning to CUCUCGGUAGCCAAGUUGGUUUCCGGCGCAAGACAUUAAUUUAUCACUACGAAAUCUUGAGAUCGGGCGUUCGACUCGCCCCCGGGAGAUUUUUUCCUCGAGCAA [A23C A24C U35A], the nonsense suppression was not above 0.026.

As to CUCUCGGUAGCCAAGUUGCUUUAAGACGCAAGACUUUAAUUUAUCACUACGAAAUCUUGAGAUCGUGCGUUCGACGCGCCCCCGGGAUAUUUUUUCCUCGAGCAA [G19C G26A G66U U76G G88U], the nonsense suppression was not above 0.026. Under CUCUCGGUAGCCGAGUUGGUUUAAGGCGCUGGUCUUUAAUUUAUCACUACGAAAUCUUGAGAUCGGGCGUUCGACUCGCCCCCGGGAGAUUUUUUCCUCGAGCAA [A13G A30U A31G A33U] stands not above 0.026; under CUCUCGGUAGCCAAGUUGGUUUAAGGCGCAAGACUUUAAUUUAUCACUACGAAAUCUUGACAUCGCGCGUUCUACUCGCCCCCGGGAGAUUUUUUCCUCGAGCAA [G61C G66C G73U], not above 0.026; under CUCUCGGUAGCCAAGUUGGUUUAAGGCGCAAGAGUUUAAUUUAUCACUACGAAAUCUUGAGAUCCGGCGUUCGACUCGCCCCGGGGAGAUUUUUUCCUCGAGCAA [C34G G65C C83G], not above 0.026. Consider CUCUCGGUAGCCAAGGUGGUUUAAGGCGCAAGACUUUAAUUUAUCACUACGAAAUCUUGAGAUCGGGCGUUCGACUCGCCCCCGGGAGCUUUUUUCCUCGAGCAA [U16G A89C], for which the nonsense suppression was not above 0.026. Under CUCUCGGUAGCCAAGUUGGUUUUAGGCGCAAGACUUUAAUUUAUCACUACGAAAUGUUGAGAUCGGGCGUUCGACUCGCCCCCGGGAGAUUUUUUCCUCGAGCAA [A23U C56G] stands not above 0.026; under CUCUCGGUAGUCAAGAUGGUUUAAGGCGCAAGACUUUAAUUUAUCACUACGAAAUCUUGAGAUCGGGCGUUCGACUUGCCCCCGGGAGAUUUUUUCCUCGAGCAA [C11U U16A C77U], not above 0.026; under CUCUCGGUAGCCAAGUUGGUUUAACGGGCAAGACUUUAAUUUAUCACUACGAAAUCUUGAGAUCGGGCGCUCGACUCGCCCCCGGGAGAUUUUUUCCUCGAGCAA [G25C C27G U70C], not above 0.026.
